The other results are listed elsewhere or left out. The list includes weakly bound sequences.

This experiment concerns the target T1, MBP-FoxP3dN (UniProt Q99JB6).
T1 sequence: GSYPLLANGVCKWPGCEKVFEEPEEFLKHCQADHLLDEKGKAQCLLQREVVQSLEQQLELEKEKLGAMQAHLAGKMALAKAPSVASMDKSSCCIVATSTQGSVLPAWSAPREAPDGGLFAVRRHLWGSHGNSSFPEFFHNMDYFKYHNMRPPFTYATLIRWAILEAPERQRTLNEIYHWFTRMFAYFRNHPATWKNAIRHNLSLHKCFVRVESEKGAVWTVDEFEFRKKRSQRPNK
Description: PD-seq (MBP pull-down with sequencing). As to conditions: 20 mM Tris-HCl pH 7.5, 100 mM NaCl, 1.5 mM MgCl2, 0.4 uM protein, 0.1 uM dsDNA library, 30 min, room temperature, amylose pull-down; high values mean tight binding; double strand, one strand shown.
On to “GATGATTGTTCTCCCAGCTGATGAATTGATAAACTCGAGTAAACAAATTTTCCTAATCTTTCTGTTCAAGCGCCATCTAC”, for which the binding signal (RPM ratio (pull-down/input)) is 0.537. Turning to “GATGATTGTTCTCCCAGCTGATGAATTCTGCGGGTCGAGTAAACAAATTTTCCTAATCTTTCTGTTCAAGCGCCATCTAC”, the binding signal (RPM ratio (pull-down/input)) is 0.928. Next, “GATGATTGTTCTCCCAGCTGATGAATTTTATAGATCGAGTAAACAAATTTTCCTAATCTTTCTGTTCAAGCGCCATCTAC”: 0.401. Then “GATGATTGTTCTCCCAGCTGATGAATTAGTCCGTTCGAGTAAACAAATTTTCCTAATCTTTCTGTTCAAGCGCCATCTAC”, with 0.434; and “GATGATTGTTCTCCCAGCTGATGAATTTCCCAGATCGAGTAAACAAATTTTCCTAATCTTTCTGTTCAAGCGCCATCTAC”, with 0.152.

As to “GATGATTGTTCTCCCAGCTGATGAATTTCCCTCTTCGAGTAAACAAATTTTCCTAATCTTTCTGTTCAAGCGCCATCTAC”, the binding signal (RPM ratio (pull-down/input)) was 0.262. “GATGATTGTTCTCCCAGCTGATGAATTAACACCTTCGAGTAAACAAATTTTCCTAATCTTTCTGTTCAAGCGCCATCTAC”: the binding signal (RPM ratio (pull-down/input)) turned out to be 0.408. Then “GATGATTGTTCTCCCAGCTGATGAATTGCTCATTTCGAGTAAACAAATTTTCCTAATCTTTCTGTTCAAGCGCCATCTAC”, with 0.686. Then “GATGATTGTTCTCCCAGCTGATGAATTTGAGACTTCGAGTAAACAAATTTTCCTAATCTTTCTGTTCAAGCGCCATCTAC”, with 0.562; and “GATGATTGTTCTCCCAGCTGATGAATTTCAATCCTCGAGTAAACAAATTTTCCTAATCTTTCTGTTCAAGCGCCATCTAC”, with 0.37. Next, “GATGATTGTTCTCCCAGCTGATGAATTTTAGTGTTCGAGTAAACAAATTTTCCTAATCTTTCTGTTCAAGCGCCATCTAC”: 1.21; “GATGATTGTTCTCCCAGCTGATGAATTAGATCCGTCGAGTAAACAAATTTTCCTAATCTTTCTGTTCAAGCGCCATCTAC”: 0.24; “GATGATTGTTCTCCCAGCTGATGAATTGCAGAATTCGAGTAAACAAATTTTCCTAATCTTTCTGTTCAAGCGCCATCTAC”: 1.

Take “GATGATTGTTCTCCCAGCTGATGAATTTAGTTTTTCGAGTAAACAAATTTTCCTAATCTTTCTGTTCAAGCGCCATCTAC”: the binding signal (RPM ratio (pull-down/input)) is 2.8. Take “GATGATTGTTCTCCCAGCTGATGAATTTAATGAATCGAGTAAACAAATTTTCCTAATCTTTCTGTTCAAGCGCCATCTAC”: the binding signal (RPM ratio (pull-down/input)) turned out to be 0.272.

As to “GATGATTGTTCTCCCAGCTGATGAATTATTAAACTCGAGTAAACAAATTTTCCTAATCTTTCTGTTCAAGCGCCATCTAC”, the binding signal (RPM ratio (pull-down/input)) came to 0.32. On to “GATGATTGTTCTCCCAGCTGATGAATTACGGACGTCGAGTAAACAAATTTTCCTAATCTTTCTGTTCAAGCGCCATCTAC”, for which the binding signal (RPM ratio (pull-down/input)) came to 0.325. Then “GATGATTGTTCTCCCAGCTGATGAATTATTACCTTCGAGTAAACAAATTTTCCTAATCTTTCTGTTCAAGCGCCATCTAC”, with 0.397. Next, “GATGATTGTTCTCCCAGCTGATGAATTCTAGCATTCGAGTAAACAAATTTTCCTAATCTTTCTGTTCAAGCGCCATCTAC”: 5.17; “GATGATTGTTCTCCCAGCTGATGAATTGACTAATTCGAGTAAACAAATTTTCCTAATCTTTCTGTTCAAGCGCCATCTAC”: 0.356; “GATGATTGTTCTCCCAGCTGATGAATTCCACTTGTCGAGTAAACAAATTTTCCTAATCTTTCTGTTCAAGCGCCATCTAC”: 0.571. Next, “GATGATTGTTCTCCCAGCTGATGAATTCCTGAGATCGAGTAAACAAATTTTCCTAATCTTTCTGTTCAAGCGCCATCTAC”: 0.228. Turning to “GATGATTGTTCTCCCAGCTGATGAATTGAAGCCGTCGAGTAAACAAATTTTCCTAATCTTTCTGTTCAAGCGCCATCTAC”, the binding signal (RPM ratio (pull-down/input)) was 0.359. Next, “GATGATTGTTCTCCCAGCTGATGAATTCGACACATCGAGTAAACAAATTTTCCTAATCTTTCTGTTCAAGCGCCATCTAC”: 0.639; “GATGATTGTTCTCCCAGCTGATGAATTTACAACGTCGAGTAAACAAATTTTCCTAATCTTTCTGTTCAAGCGCCATCTAC”: 0.527; “GATGATTGTTCTCCCAGCTGATGAATTGTCGGTCTCGAGTAAACAAATTTTCCTAATCTTTCTGTTCAAGCGCCATCTAC”: 0.424.

Consider “GATGATTGTTCTCCCAGCTGATGAATTGTAGAATTCGAGTAAACAAATTTTCCTAATCTTTCTGTTCAAGCGCCATCTAC”, for which the binding signal (RPM ratio (pull-down/input)) was 0.761. Then “GATGATTGTTCTCCCAGCTGATGAATTTACATTCTCGAGTAAACAAATTTTCCTAATCTTTCTGTTCAAGCGCCATCTAC”, with 0.674. Then “GATGATTGTTCTCCCAGCTGATGAATTGAGAGTATCGAGTAAACAAATTTTCCTAATCTTTCTGTTCAAGCGCCATCTAC”, with 0.532. Consider “GATGATTGTTCTCCCAGCTGATGAATTCTCCAGATCGAGTAAACAAATTTTCCTAATCTTTCTGTTCAAGCGCCATCTAC”, for which the binding signal (RPM ratio (pull-down/input)) was 0.141. Next, “GATGATTGTTCTCCCAGCTGATGAATTCTAAGCTTCGAGTAAACAAATTTTCCTAATCTTTCTGTTCAAGCGCCATCTAC”: 0.271; “GATGATTGTTCTCCCAGCTGATGAATTTGCAATCTCGAGTAAACAAATTTTCCTAATCTTTCTGTTCAAGCGCCATCTAC”: 3; “GATGATTGTTCTCCCAGCTGATGAATTGGCGTACTCGAGTAAACAAATTTTCCTAATCTTTCTGTTCAAGCGCCATCTAC”: 0.922. “GATGATTGTTCTCCCAGCTGATGAATTTGATCCCTCGAGTAAACAAATTTTCCTAATCTTTCTGTTCAAGCGCCATCTAC”: the binding signal (RPM ratio (pull-down/input)) was 0.471. Consider “GATGATTGTTCTCCCAGCTGATGAATTCTGTGCCTCGAGTAAACAAATTTTCCTAATCTTTCTGTTCAAGCGCCATCTAC”, for which the binding signal (RPM ratio (pull-down/input)) was 1.19.

Consider “GATGATTGTTCTCCCAGCTGATGAATTGCGAGATTCGAGTAAACAAATTTTCCTAATCTTTCTGTTCAAGCGCCATCTAC”, for which the binding signal (RPM ratio (pull-down/input)) was determined as 0.748. As for “GATGATTGTTCTCCCAGCTGATGAATTCGCATGCTCGAGTAAACAAATTTTCCTAATCTTTCTGTTCAAGCGCCATCTAC”, the binding signal (RPM ratio (pull-down/input)) was 2.12. As to “GATGATTGTTCTCCCAGCTGATGAATTTTATTTATCGAGTAAACAAATTTTCCTAATCTTTCTGTTCAAGCGCCATCTAC”, the binding signal (RPM ratio (pull-down/input)) stood at 6.95. Next, “GATGATTGTTCTCCCAGCTGATGAATTATGCTTTTCGAGTAAACAAATTTTCCTAATCTTTCTGTTCAAGCGCCATCTAC”: 4.09; “GATGATTGTTCTCCCAGCTGATGAATTGCCAGCATCGAGTAAACAAATTTTCCTAATCTTTCTGTTCAAGCGCCATCTAC”: 1.02. Take “GATGATTGTTCTCCCAGCTGATGAATTCGTATATTCGAGTAAACAAATTTTCCTAATCTTTCTGTTCAAGCGCCATCTAC”: the binding signal (RPM ratio (pull-down/input)) was found to be 2.61.

Turning to “GATGATTGTTCTCCCAGCTGATGAATTACGCCGTTCGAGTAAACAAATTTTCCTAATCTTTCTGTTCAAGCGCCATCTAC”, the binding signal (RPM ratio (pull-down/input)) came out at 1.26. Take “GATGATTGTTCTCCCAGCTGATGAATTCGCAGACTCGAGTAAACAAATTTTCCTAATCTTTCTGTTCAAGCGCCATCTAC”: the binding signal (RPM ratio (pull-down/input)) worked out at 0.262. Next, “GATGATTGTTCTCCCAGCTGATGAATTAACGTTTTCGAGTAAACAAATTTTCCTAATCTTTCTGTTCAAGCGCCATCTAC”: 0.537; “GATGATTGTTCTCCCAGCTGATGAATTCTATTCATCGAGTAAACAAATTTTCCTAATCTTTCTGTTCAAGCGCCATCTAC”: 0.519. Then “GATGATTGTTCTCCCAGCTGATGAATTGGTCCGTTCGAGTAAACAAATTTTCCTAATCTTTCTGTTCAAGCGCCATCTAC”, with 0.317; and “GATGATTGTTCTCCCAGCTGATGAATTCACTGTATCGAGTAAACAAATTTTCCTAATCTTTCTGTTCAAGCGCCATCTAC”, with 0.627; and “GATGATTGTTCTCCCAGCTGATGAATTGCTCGCGTCGAGTAAACAAATTTTCCTAATCTTTCTGTTCAAGCGCCATCTAC”, with 0.761. Turning to “GATGATTGTTCTCCCAGCTGATGAATTGGCCGAATCGAGTAAACAAATTTTCCTAATCTTTCTGTTCAAGCGCCATCTAC”, the binding signal (RPM ratio (pull-down/input)) was determined as 0.222. Next, “GATGATTGTTCTCCCAGCTGATGAATTGCCTCGCTCGAGTAAACAAATTTTCCTAATCTTTCTGTTCAAGCGCCATCTAC”: 0.655; “GATGATTGTTCTCCCAGCTGATGAATTCTTGTGCTCGAGTAAACAAATTTTCCTAATCTTTCTGTTCAAGCGCCATCTAC”: 0.373; “GATGATTGTTCTCCCAGCTGATGAATTGCAATCATCGAGTAAACAAATTTTCCTAATCTTTCTGTTCAAGCGCCATCTAC”: 2.79.

With “GATGATTGTTCTCCCAGCTGATGAATTTAAAGACTCGAGTAAACAAATTTTCCTAATCTTTCTGTTCAAGCGCCATCTAC”, the binding signal (RPM ratio (pull-down/input)) was 0.245.

As for “GATGATTGTTCTCCCAGCTGATGAATTCTGTGTATCGAGTAAACAAATTTTCCTAATCTTTCTGTTCAAGCGCCATCTAC”, the binding signal (RPM ratio (pull-down/input)) worked out at 5.85. Then “GATGATTGTTCTCCCAGCTGATGAATTACGTCCGTCGAGTAAACAAATTTTCCTAATCTTTCTGTTCAAGCGCCATCTAC”, with 0.451; and “GATGATTGTTCTCCCAGCTGATGAATTCACCAGGTCGAGTAAACAAATTTTCCTAATCTTTCTGTTCAAGCGCCATCTAC”, with 0.21.

Consider “GATGATTGTTCTCCCAGCTGATGAATTTCTGCAATCGAGTAAACAAATTTTCCTAATCTTTCTGTTCAAGCGCCATCTAC”, for which the binding signal (RPM ratio (pull-down/input)) amounted to 3.01.

In the case of “GATGATTGTTCTCCCAGCTGATGAATTTCCCTGCTCGAGTAAACAAATTTTCCTAATCTTTCTGTTCAAGCGCCATCTAC”, the binding signal (RPM ratio (pull-down/input)) was 0.232. Then “GATGATTGTTCTCCCAGCTGATGAATTCGCGAGGTCGAGTAAACAAATTTTCCTAATCTTTCTGTTCAAGCGCCATCTAC”, with 0.304; and “GATGATTGTTCTCCCAGCTGATGAATTTCGTTTATCGAGTAAACAAATTTTCCTAATCTTTCTGTTCAAGCGCCATCTAC”, with 3.7; and “GATGATTGTTCTCCCAGCTGATGAATTGCGACCGTCGAGTAAACAAATTTTCCTAATCTTTCTGTTCAAGCGCCATCTAC”, with 0.963. Next, “GATGATTGTTCTCCCAGCTGATGAATTGGGCTGATCGAGTAAACAAATTTTCCTAATCTTTCTGTTCAAGCGCCATCTAC”: 0.443.

As for “GATGATTGTTCTCCCAGCTGATGAATTTACCAGATCGAGTAAACAAATTTTCCTAATCTTTCTGTTCAAGCGCCATCTAC”, the binding signal (RPM ratio (pull-down/input)) turned out to be 0.298.

The values are drawn from publication PMC12820563.
